The source of these data is publication PMC7349898.

To fix the notation:
T1: AtIDD15 (Arabidopsis) (UniProt F4IPE3)
T1 sequence: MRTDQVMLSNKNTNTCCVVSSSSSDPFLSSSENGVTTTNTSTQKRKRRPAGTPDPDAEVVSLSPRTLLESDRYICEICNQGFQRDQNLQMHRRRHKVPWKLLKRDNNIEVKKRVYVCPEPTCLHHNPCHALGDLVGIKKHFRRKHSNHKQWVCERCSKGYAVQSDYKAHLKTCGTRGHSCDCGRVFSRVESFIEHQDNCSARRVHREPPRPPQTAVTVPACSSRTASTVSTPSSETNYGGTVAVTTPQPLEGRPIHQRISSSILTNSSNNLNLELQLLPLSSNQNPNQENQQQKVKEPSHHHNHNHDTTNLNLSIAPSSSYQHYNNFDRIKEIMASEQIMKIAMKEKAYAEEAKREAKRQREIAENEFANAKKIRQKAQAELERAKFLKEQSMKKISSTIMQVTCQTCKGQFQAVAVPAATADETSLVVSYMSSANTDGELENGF

T2: OsID1 (rice) (UniProt B1B534)
T2 sequence: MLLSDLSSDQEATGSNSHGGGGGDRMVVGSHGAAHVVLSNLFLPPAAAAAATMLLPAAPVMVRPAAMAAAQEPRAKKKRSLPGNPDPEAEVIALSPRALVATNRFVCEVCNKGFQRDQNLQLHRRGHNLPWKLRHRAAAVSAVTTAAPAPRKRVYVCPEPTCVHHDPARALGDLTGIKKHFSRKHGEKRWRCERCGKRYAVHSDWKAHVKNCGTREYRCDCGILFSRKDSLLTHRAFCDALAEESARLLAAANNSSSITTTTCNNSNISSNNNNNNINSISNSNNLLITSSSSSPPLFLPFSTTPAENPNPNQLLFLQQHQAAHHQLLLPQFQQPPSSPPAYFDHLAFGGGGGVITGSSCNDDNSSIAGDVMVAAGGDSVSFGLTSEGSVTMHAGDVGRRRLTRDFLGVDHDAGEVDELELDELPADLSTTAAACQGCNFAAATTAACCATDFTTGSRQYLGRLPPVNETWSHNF

T3: AtIDD1 (Arabidopsis) (UniProt Q9LVQ7)
T3 sequence: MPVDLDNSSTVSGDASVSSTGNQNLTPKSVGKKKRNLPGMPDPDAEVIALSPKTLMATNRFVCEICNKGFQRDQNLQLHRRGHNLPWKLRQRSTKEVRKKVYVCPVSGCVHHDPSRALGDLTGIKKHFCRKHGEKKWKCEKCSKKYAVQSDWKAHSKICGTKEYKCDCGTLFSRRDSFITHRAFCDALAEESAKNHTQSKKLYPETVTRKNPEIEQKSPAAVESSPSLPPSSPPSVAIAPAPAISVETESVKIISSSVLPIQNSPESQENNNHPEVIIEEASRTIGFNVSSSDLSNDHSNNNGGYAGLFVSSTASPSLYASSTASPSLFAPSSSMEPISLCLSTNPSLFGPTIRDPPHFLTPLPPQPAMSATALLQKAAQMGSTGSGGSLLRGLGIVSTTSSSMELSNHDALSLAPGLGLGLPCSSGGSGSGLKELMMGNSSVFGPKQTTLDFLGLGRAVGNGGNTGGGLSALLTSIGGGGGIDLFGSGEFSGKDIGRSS

T4: AtIDD6 (Arabidopsis) (UniProt Q8RWX7)
T4 sequence: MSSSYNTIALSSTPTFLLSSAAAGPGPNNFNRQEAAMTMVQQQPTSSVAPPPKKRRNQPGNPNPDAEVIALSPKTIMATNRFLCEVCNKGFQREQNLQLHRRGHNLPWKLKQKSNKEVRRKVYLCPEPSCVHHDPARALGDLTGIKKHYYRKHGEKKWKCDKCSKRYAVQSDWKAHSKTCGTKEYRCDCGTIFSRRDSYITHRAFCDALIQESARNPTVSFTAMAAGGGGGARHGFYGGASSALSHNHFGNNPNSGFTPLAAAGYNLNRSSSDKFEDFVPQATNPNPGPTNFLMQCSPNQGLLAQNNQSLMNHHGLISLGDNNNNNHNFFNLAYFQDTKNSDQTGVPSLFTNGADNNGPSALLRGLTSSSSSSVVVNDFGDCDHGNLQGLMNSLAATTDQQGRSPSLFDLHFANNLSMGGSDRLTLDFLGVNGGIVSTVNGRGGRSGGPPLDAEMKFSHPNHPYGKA

T5: AtIDD10 (Arabidopsis) (UniProt Q700D2)
T5 sequence: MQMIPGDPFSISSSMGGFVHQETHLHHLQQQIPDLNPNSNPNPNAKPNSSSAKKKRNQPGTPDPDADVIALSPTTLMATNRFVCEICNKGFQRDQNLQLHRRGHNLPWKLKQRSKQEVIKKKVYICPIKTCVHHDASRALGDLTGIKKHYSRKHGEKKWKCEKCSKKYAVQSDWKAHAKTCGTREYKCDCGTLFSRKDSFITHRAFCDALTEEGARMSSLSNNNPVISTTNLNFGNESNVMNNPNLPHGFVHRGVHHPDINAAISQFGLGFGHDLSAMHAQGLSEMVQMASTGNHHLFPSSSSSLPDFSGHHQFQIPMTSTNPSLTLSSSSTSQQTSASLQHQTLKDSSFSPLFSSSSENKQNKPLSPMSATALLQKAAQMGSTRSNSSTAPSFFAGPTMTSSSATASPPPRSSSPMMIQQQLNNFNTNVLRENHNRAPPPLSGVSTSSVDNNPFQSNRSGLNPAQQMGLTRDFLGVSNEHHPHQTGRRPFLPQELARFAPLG

B1: SCARECROW-LIKE 3 (protein, UniProt Q9LPR8 1-482)
chain: MVAMFQEDNGTSSVASSPLQVFSTMSLNRPTLLASSSPFHCLKDLKPEERGLYLIHLLLTCANHVASGSLQNANAALEQLSHLASPDGDTMQRIAAYFTEALANRILKSWPGLYKALNATQTRTNNVSEEIHVRRLFFEMFPILKVSYLLTNRAILEAMEGEKMVHVIDLDASEPAQWLALLQAFNSRPEGPPHLRITGVHHQKEVLEQMAHRLIEEAEKLDIPFQFNPVVSRLDCLNVEQLRVKTGEALAVSSVLQLHTFLASDDDLMRKNCALRFQNNPSGVDLQRVLMMSHGSAAEARENDMSNNNGYSPSGDSASSLPLPSSGRTDSFLNAIWGLSPKVMVVTEQDSDHNGSTLMERLLESLYTYAALFDCLETKVPRTSQDRIKVEKMLFGEEIKNIISCEGFERRERHEKLEKWSQRIDLAGFGNVPLSYYAMLQARRLLQGCGFDGYRIKEESGCAVICWQDRPLYSVSAWRCRK
B2: SLR1 (protein, UniProt Q7G7J6 1-625)
chain: MKREYQEAGGSSGGGSSADMGSCKDKVMAGAAGEEEDVDELLAALGYKVRSSDMADVAQKLEQLEMAMGMGGVSAPGAADDGFVSHLATDTVHYNPSDLSSWVESMLSELNAPLPPIPPAPPAARHASTSSTVTGGGGSGFFELPAAADSSSSTYALRPISLPVVATADPSAADSARDTKRMRTGGGSTSSSSSSSSSLGGGASRGSVVEAAPPATQGAAAANAPAVPVVVVDTQEAGIRLVHALLACAEAVQQENFAAAEALVKQIPTLAASQGGAMRKVAAYFGEALARRVYRFRPADSTLLDAAFADLLHAHFYESCPYLKFAHFTANQAILEAFAGCHRVHVVDFGIKQGMQWPALLQALALRPGGPPSFRLTGVGPPQPDETDALQQVGWKLAQFAHTIRVDFQYRGLVAATLADLEPFMLQPEGEADANEEPEVIAVNSVFELHRLLAQPGALEKVLGTVHAVRPRIVTVVEQEANHNSGSFLDRFTESLHYYSTMFDSLEGGSSGQAELSPPAAGGGGGTDQVMSEVYLGRQICNVVACEGAERTERHETLGQWRNRLGRAGFEPVHLGSNAYKQASTLLALFAGGDGYRVEEKEGCLTLGWHTRPLIATSAWRVAAA
B3: RGA-LIKE 1 (protein, UniProt Q9C8Y3 1-511)
chain: MKREHNHRESSAGEGGSSSMTTVIKEEAAGVDELLVVLGYKVRSSDMADVAHKLEQLEMVLGDGISNLSDETVHYNPSDLSGWVESMLSDLDPTRIQEKPDSEYDLRAIPGSAVYPRDEHVTRRSKRTRIESELSSTRSVVVLDSQETGVRLVHALLACAEAVQQNNLKLADALVKHVGLLASSQAGAMRKVATYFAEGLARRIYRIYPRDDVALSSFSDTLQIHFYESCPYLKFAHFTANQAILEVFATAEKVHVIDLGLNHGLQWPALIQALALRPNGPPDFRLTGIGYSLTDIQEVGWKLGQLASTIGVNFEFKSIALNNLSDLKPEMLDIRPGLESVAVNSVFELHRLLAHPGSIDKFLSTIKSIRPDIMTVVEQEANHNGTVFLDRFTESLHYYSSLFDSLEGPPSQDRVMSELFLGRQILNLVACEGEDRVERHETLNQWRNRFGLGGFKPVSIGSNAYKQASMLLALYAGADGYNVEENEGCLLLGWQTRPLIATSAWRINRVE
B4: SHORT-ROOT (protein, UniProt Q9SZF7 1-531)
chain: MDTLFRLVSLQQQQQSDSIITNQSSLSRTSTTTTGSPQTAYHYNFPQNDVVEECFNFFMDEEDLSSSSSHHNHHNHNNPNTYYSPFTTPTQYHPATSSTPSSTAAAAALASPYSSSGHHNDPSAFSIPQTPPSFDFSANAKWADSVLLEAARAFSDKDTARAQQILWTLNELSSPYGDTEQKLASYFLQALFNRMTGSGERCYRTMVTAAATEKTCSFESTRKTVLKFQEVSPWATFGHVAANGAILEAVDGEAKIHIVDISSTFCTQWPTLLEALATRSDDTPHLRLTTVVVANKFVNDQTASHRMMKEIGNRMEKFARLMGVPFKFNIIHHVGDLSEFDLNELDVKPDEVLAINCVGAMHGIASRGSPRDAVISSFRRLRPRIVTVVEEEADLVGEEEGGFDDEFLRGFGECLRWFRVCFESWEESFPRTSNERLMLERAAGRAIVDLVACEPSDSTERRETARKWSRRMRNSGFGAVGYSDEVADDVRALLRRYKEGVWSMVQCPDAAGIFLCWRDQPVVWASAWRPT

These are yes or no findings as the source states them, for the method shown. Some results given as binding are weak or reduced against the parent protein; the word gives no strength.

The target in one assay is T1, AtIDD15 (Arabidopsis). Kind of assay: two-hybrid; Gal4 yeast two-hybrid; baits in pGBT9, preys in pGAD424; yeast strain PJ69-4A; serial dilutions spotted on -LW and -LWH with an appropriate concentration of 3-AT; 3 days at 30 °C.
Take B1: the binding result is “no binding”.

For B2, the binding entry is “no binding”.

Regarding B3, the binding result is on record as “no binding”.

Turning to B4, the binding result was “no binding”.

The target in the next assay is T2, OsID1 (rice). The assay is described as above.
As for B1, the binding entry was “no binding”.

In the case of B2, the binding result is reported as “binds weakly”.

Turning to B3, the binding result is “binds”.

As to B4, the binding entry is recorded as “binds”.

For a further assay, the target named is T3, AtIDD1 (Arabidopsis). The assay is described as above.
Regarding B1, the binding result is recorded as “binds”.

Consider B2, for which the binding entry was “binds”.

Turning to B3, the binding result was “binds”.

On to B4, for which the binding result is recorded as “binds”.

The target in the next assay is T4, AtIDD6 (Arabidopsis). Described as above.
As for B1, the binding entry is “no binding”.

On to B2, for which the binding result is “no binding”.

On to B3, for which the binding result is “binds”.

With B4, the binding result was “binds”.

The next assay addresses T5, AtIDD10 (Arabidopsis). The description is as above.
Regarding B1, the binding entry was “binds”.

For the molecule B2, the binding result was “binds weakly”.

Consider B3, for which the binding result is “binds”.

Regarding B4, the binding entry was “binds”.
